Hit rate of the full screen: of about 310,000 compounds, about 2,200 (0.71%) showed an effect of 50% or more. The effect is printed as a negative number. This is one part of the list.
What follows are molecules tested against human ether-à-go-go-related gene (hERG) potassium channel (human, UniProt Q12809) (assay: primary screen, population patch clamp on CHO cells stably expressing hERG).
Chain of human ether-à-go-go-related gene (hERG) potassium channel (Q12809 whole entry, looked up): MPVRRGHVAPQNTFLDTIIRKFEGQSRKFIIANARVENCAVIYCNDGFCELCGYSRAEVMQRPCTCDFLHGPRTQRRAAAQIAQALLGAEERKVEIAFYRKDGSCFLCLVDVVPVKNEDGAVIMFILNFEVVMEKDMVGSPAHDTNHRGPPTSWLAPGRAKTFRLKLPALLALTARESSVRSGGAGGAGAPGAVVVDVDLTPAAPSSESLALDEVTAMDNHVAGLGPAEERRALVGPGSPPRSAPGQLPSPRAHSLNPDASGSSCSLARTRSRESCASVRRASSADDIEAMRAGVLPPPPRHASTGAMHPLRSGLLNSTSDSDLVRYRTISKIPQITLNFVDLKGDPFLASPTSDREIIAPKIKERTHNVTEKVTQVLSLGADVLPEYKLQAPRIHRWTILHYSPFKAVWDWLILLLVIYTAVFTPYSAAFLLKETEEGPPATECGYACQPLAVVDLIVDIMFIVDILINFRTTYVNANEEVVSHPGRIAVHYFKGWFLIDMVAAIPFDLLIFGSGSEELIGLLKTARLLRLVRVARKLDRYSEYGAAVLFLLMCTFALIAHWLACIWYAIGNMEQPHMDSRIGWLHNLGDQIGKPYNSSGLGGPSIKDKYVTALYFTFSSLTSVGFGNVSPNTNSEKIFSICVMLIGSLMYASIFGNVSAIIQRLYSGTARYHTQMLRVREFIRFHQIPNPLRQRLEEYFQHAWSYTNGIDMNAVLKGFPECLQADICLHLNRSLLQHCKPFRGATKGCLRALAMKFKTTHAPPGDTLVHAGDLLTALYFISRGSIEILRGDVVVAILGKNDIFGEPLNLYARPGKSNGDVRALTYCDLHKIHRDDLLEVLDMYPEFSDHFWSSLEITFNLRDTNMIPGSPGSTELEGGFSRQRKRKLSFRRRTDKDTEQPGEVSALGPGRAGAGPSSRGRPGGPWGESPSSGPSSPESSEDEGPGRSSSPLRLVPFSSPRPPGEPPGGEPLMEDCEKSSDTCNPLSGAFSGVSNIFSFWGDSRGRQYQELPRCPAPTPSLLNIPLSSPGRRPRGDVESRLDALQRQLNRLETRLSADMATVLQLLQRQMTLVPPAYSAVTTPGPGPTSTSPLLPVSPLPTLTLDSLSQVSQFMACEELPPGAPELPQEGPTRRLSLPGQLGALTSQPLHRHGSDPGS

Row | Structure (SMILES) | hERG current change (%, negative = inhibition) at 1uM [%]
1 | COC(=O)c1sc2ccc(C)cc2c1C(=O)OC | 9.41
2 | CCOc1ccc(NC(=O)CN2C(=O)COc3ccc(S(=O)(=O)N4CCCCC4)cc32)cc1 | 6.28
3 | O=C(NCc1ccc2c(c1)CCO2)Nc1cccc(C(F)(F)F)c1 | 13.1
4 | CN(CC(=O)Nc1ccc(Cl)c(C(F)(F)F)c1)C(=O)c1ccc(OCC2CCCO2)cc1 (stereo not drawn) | 11.5
5 | O=C(O)c1ccc(-c2nc(-c3ccccc3Cl)cs2)cc1 | 4.9
6 | CCOc1ccc(CCNC(=O)COC(=O)COc2ccc(C#N)cc2)cc1OCC | 1.47
7 | CCOC(=O)C(Cc1cc(C(C)=O)ccc1OCC)C(=O)OCC | 6.74
8 | O=C(CSC1=Nc2ccccc2C2=NC(c3ccccc3)C(=O)N12)NCC1CCCO1 (stereo not drawn) | 3.29
9 | CC1CC(=O)C(C2c3ccccc3CCN2C(=O)CCl)C(=O)C1 (stereo not drawn) | 1.3
10 | CC(C)C(=O)N=C1SC2CS(=O)(=O)CC2N1Cc1ccccc1 (stereo not drawn) | 5.09
11 | CCC(=O)NCCc1nc2cc(NC(=O)c3ccccc3OC)ccc2n1C | 11.3
12 | O=[N+]([O-])c1cccnc1Sc1ccc(F)cc1 | 4.1
13 | CCOc1ccccc1C(=O)OCC(=O)Nc1cc(S(=O)(=O)N2CCOCC2)ccc1C | 5.08
14 | O=C(N/C(=C\c1cn(-c2ccccc2)nc1-c1ccc(Cl)cc1)C(=O)N1CCOCC1)c1ccccc1 | 10.5
15 | O=C(COC(=O)c1ccc2c(=O)n3c(nc2c1)CCC3)NC1CCS(=O)(=O)C1 (stereo not drawn) | 7.45
16 | Cc1cccc2cccnc12 | 10.6
17 | CCCN1C(=O)c2ccccc2NC1c1ccc(Br)cc1 (stereo not drawn) | 6.1
18 | COCCCNC(=O)c1c(N)n(-c2ccc3c(c2)OCO3)c2nc3ccccc3nc12 | 10.2
19 | Cc1ccc(NC(=O)N2CCCC2C(=O)NCc2ccccc2Cl)cc1 (stereo not drawn) | 12.4
20 | CC(=O)Nc1ccc2nc(CN3CCN(Cc4ccc(F)cc4)C(CCO)C3)ccc2c1 (stereo not drawn) | 5.81
21 | Cc1c(Cl)cccc1NC(=O)CCCN1C(=O)CCC1=O | 16.3
22 | COc1cccc(C(=O)C2CCCN(C(=O)c3ccccc3Cl)C2)c1 (stereo not drawn) | 13.2
23 | CCOc1ccccc1-n1nnnc1SCC(=O)NC(=O)Nc1ccc2c(c1)OCCO2 | 9.7

Row | Structure (SMILES) | hERG current change (%, negative = inhibition) at 1uM [%]
24 | Cc1c(Cl)cccc1NC(=O)CSc1nccn1C | 10.8
25 | COc1cccc(-n2cc3c(=O)n(C)c(=O)n(C)c3c2)c1 | 8.62
26 | CCOC(=O)COc1ccc(S(=O)(=O)Nc2ccc3c(c2)OCCO3)cc1 | 6.16
27 | Cc1ccc(N(Cc2ccccc2F)S(C)(=O)=O)c(C)c1 | 9.26
28 | Cc1sc(NC(=O)CN2CCOCC2)c(C#N)c1C | 6.46
29 | CCOC(=O)[C@@H]1[C@H]2COc3ccccc3[C@H]2N2C(=O)N(c3ccc(F)cc3)C(=O)[C@]12C | 6.09
30 | CCOC(=O)C1=C(N)Oc2c(c(=O)[nH]c3ccccc23)C1c1ccccc1 (stereo not drawn) | 8.82
31 | O=S(=O)(NCc1cn2ccccc2n1)c1cccs1 | 7.56
32 | Cc1cccc(CSCc2nnc(N)s2)c1 | 3.45
33 | COc1ccc(/C=C(\NC(=O)c2ccccc2)C(=O)N/N=C/c2cccnc2)cc1 | 6.5
34 | O=C(O)c1nc(NCCc2ccccc2)ncc1Cl | 13.3
35 | CCn1cc(CNc2nc3nonc3nc2N2CCCCC2)cn1 | 2.1
36 | CC(NC(=O)c1ccco1)C(=O)OC(C)C(=O)NCc1ccccc1 (stereo not drawn) | 8.37
37 | COc1ccccc1C(=O)NC(CCSC)C(=O)NNC(=O)c1ccc(F)cc1 (stereo not drawn) | 13.3
38 | COc1ccc(OC)c(N/C=C/C(=O)c2ccccc2)c1 | 12.9
39 | O=C(CCN1CCCCC1)Nn1c(=S)[nH]c2ccccc2c1=O | 12
40 | Cc1cc(/C=C2/SC(=O)N(CC(=O)OC(C)C)C2=O)c(C)n1C | 5.09
41 | CCc1nonc1NC(=O)c1oc2ccc(Br)cc2c1C | 10.9
42 | COc1cccc(N(CC(=O)N2CCN(c3ccccc3OC)CC2)S(C)(=O)=O)c1 | 14.5
43 | C=C(C)Cn1c(C)cc(C)c(S(=O)(=O)c2ccccc2C)c1=O | 17.7
44 | O=C(NN1C(=O)NC2(CCCCC2)C1=O)c1cc2ccccc2o1 | 29.1
45 | O=C(NCc1cccnc1)c1ccc(CN2CCc3ccccc3C2)cc1 | 12.9
